Data published in US20220251191A1 (ARCH ONCOLOGY, published 2022).

Legend:
[1] = biological target: T1, IL-15Rβ with 20 nM receptor γ (UniProt P14784 27-239; P31785 23-262); assay: TR-FRET, with 20 nM receptor γ against without (FIG. 12)
T1 construct: Mixture of IL-2Rβ-Fc and receptor γ in the TR-FRET assay; also called IL-15Rβ with the γ subunit; IL-15 with γ; not shown: Fc domain tag
T1 sequence (looked up) 1: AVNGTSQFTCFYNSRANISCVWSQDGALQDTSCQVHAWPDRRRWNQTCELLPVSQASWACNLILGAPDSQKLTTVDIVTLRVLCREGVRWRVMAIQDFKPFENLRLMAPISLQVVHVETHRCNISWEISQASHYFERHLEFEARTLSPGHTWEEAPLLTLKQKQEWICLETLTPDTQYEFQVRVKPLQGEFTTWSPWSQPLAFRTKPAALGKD
T1 sequence (looked up) 2: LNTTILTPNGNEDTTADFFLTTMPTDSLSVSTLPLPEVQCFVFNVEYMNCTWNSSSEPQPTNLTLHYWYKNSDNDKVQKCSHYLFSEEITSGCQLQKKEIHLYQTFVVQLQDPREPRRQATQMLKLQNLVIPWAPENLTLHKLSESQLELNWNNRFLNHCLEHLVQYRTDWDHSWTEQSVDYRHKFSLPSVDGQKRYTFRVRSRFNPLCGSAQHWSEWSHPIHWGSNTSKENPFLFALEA

[2] = biological target: T2, recombinant Fc tagged IL-2 Receptor-beta (IL-2Rβ) (Sino Biologicals #10696-H02H) (UniProt P14784 27-239); assay: TR-FRET, Exp 2
T2 construct: Bought reagent; also called IL-15Rβ; β receptor; not shown: Fc domain tag (detected with α-human IgG)
T2 sequence (looked up): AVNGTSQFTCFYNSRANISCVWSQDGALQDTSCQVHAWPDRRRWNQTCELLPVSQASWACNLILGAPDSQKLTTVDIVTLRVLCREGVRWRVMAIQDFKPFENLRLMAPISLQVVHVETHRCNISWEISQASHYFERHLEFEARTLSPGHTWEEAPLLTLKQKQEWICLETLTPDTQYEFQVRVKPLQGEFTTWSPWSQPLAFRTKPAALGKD
Procedure: (§1) Continuously over the next 30 minutes, fluorescence for donor signal (337 nm excitation/620 nm emission) and acceptor signal (337 nm excitation/655 nm emission) are read. The TR-FRET binding signal is determined by taking the ratio of acceptor signal over donor signal and multiplying by 10,000. […] Equilibrium values are then fit to a standard equilibrium equation assuming single site binding using the graphing program GraFit (Erithacus Software).

[3] = biological target: T2, recombinant Fc tagged IL-2 …; assay: TR-FRET ligand-receptor binding assay, equilibrium fit
Procedure: as §1

[4] = biological target: T2, recombinant Fc tagged IL-2 …; assay: TR-FRET, Exp 1
Procedure: as §1

[5] = biological target: T2, recombinant Fc tagged IL-2 …; assay: TR-FRET, previous analyses
[6] = biological target: T2, recombinant Fc tagged IL-2 …; assay: TR-FRET, without receptor γ (FIG. 12)
Procedure: as §1

B1: IL-15 WT (in-house His6) (ligand)
chain: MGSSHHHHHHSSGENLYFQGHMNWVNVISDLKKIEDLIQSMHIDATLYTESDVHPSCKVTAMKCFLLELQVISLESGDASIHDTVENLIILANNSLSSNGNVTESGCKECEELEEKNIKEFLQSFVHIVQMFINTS
notes: also called in-house IL-15; in-house prepared rIL-15
B1 was tested, and the “fold increase in apparent affinity with receptor γ against without” value [1] was 8 fold, the Kd [2] was 0.88 nM and the Kd [3] was 0.95 nM. For the same binder, the Kd [4] was 0.95 nM, the Kd [5] was 10 nM and the Kd [6] was 28.5 nM.
